Laboratory results published in patent US20230143604A1, “QW DOSING OF GIP RECEPTOR AGONIST PEPTIDE COMPOUNDS AND USES THEREOF” (TAKEDA PHARMACEUTICAL COMPANY LIMITED, priority 2020, published 2023).
Like-named read-outs stand apart in the source and are kept apart here. Part of at least one peptide drawing is inferred or uncertain, most often the ends. Starred links: 1 amine or outer side, 2 acyl side, 3 side chain; linkers in the order of their positions; H or OH if unused. Positions of bridges follow the written chain, without caps; N, C: chain ends. Non-standard residues stand in square brackets, D forms with d. Residues, ends and D or L forms follow the SMILES beside them. Groups on a side chain read outwards from the residue. Chains are numbered I, II in the order given. *: point of attachment. C18 diacid = O=C(O)CCCCCCCCCCCCCCCCC(=O)*; C17 diacid = O=C(O)CCCCCCCCCCCCCCCC(=O)*; γGlu = O=C(O)[C@H](CCC(=O)[*:2])N[*:1]; NMeY = CN[C@@H](Cc1ccc(O)cc1)C(=O)O; AEEA = NCCOCCOCC(=O)O; Aib = CC(C)(N)C(=O)O

What was measured:
C57BL/6J mice = assay: Oral glucose tolerance test (OGTT); format: in vivo; details: 3 nmol/kg s.c., 24 hours before glucose loading
Outline: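 Peptide or vehicle given s.c. at 0.1, 0.3, 3 or 10 nmol/kg (peptide-dependent), 24 h before oral 50% dextrose at 5 ml/kg unless stated otherwise. Blood glucose read at 0, 15, 30 and 60 min. % inhibition = (1−(AUC cpd−AUC naïve)/(AUC veh−AUC naïve))×100.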

human GLP-1R = molecular target: T1, human GLP-1R (Homo sapiens, UniProt P43220); assay: Human GLP1R agonist activity, intracellular cAMP accumulation; format: cell-based
T1 construct: HEK-293T cells overexpressing full-length human GLP-1R; FLAG (N); host or cells: HEK-293T
T1 sequence (P43220 24-463): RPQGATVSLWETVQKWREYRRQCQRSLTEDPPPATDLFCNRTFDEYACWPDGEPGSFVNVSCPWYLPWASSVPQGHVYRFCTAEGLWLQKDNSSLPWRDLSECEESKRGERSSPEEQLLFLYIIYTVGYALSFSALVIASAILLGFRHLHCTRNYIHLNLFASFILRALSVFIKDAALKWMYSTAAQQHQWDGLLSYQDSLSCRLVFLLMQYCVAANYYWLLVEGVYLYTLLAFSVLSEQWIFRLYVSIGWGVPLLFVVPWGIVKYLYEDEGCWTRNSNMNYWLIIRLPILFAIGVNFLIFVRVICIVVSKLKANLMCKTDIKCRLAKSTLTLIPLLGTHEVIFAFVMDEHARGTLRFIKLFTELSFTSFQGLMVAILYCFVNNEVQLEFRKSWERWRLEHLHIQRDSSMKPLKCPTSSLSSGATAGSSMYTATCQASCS
Outline: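 Frozen assay-ready cells washed and resuspended at 4×10^5 cells/mL in Krebs Ringer buffer, then incubated with compound 1 hr at room temperature in the dark. cAMP read by HTRF (anti-cAMP antibody, d2-cAMP tracer). Normalised to 1 nm GLP-1 (100%) and DMSO (0%).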

[1] = HEK-293T cells overexpressing human GLP-1R, 1 hr, read-out: Human GLP1R cAMP EC50, HEK293T
[2] = read-out: Human GLP1R cAMP EC50, HEK293T, HEK-293T cells overexpressing human GLP-1R, 1 hr

Compound	Oral Glucose Tolerance Test Percent decrease in blood glucose AUC (%) over 60 mins (C57BL/6J mice)	EC50 (human GLP-1R; [1]) [nM]	EC50 (human GLP-1R; [2]) [nM]
CC[C@H](C)[C@H](NC(=O)[C@H](CO)NC(=O)[C@H](Cc1ccc(O)cc1)NC(=O)[C@H](CC(=O)O)NC(=O)[C@H](CO)NC(=O)[C@@H](NC(=O)[C@H](Cc1ccccc1)NC(=O)[C@@H](NC(=O)CNC(=O)[C@H](CCC(=O)O)NC(=O)C(C)(C)NC(=O)[C@H](Cc1ccc(O)cc1)NC)[C@@H](C)O)[C@@H](C)CC)C(=O)N[C@@H](C)C(=O)N[C@@H](CC(C)C)C(=O)N[C@@H](CC(=O)O)C(=O)N[C@@H](CCCNC(=N)N)C(=O)NC(C)(C)C(=O)N[C@@H](C)C(=O)N[C@@H](CCC(N)=O)C(=O)NC(C)(C)C(=O)N[C@@H](CC(=O)O)C(=O)N[C@@H](Cc1ccccc1)C(=O)N[C@H](C(=O)N[C@@H](CC(N)=O)C(=O)N[C@@H](Cc1c[nH]c2ccccc12)C(=O)N[C@@H](CC(C)C)C(=O)N[C@@H](CC(C)C)C(=O)N[C@@H](C)C(=O)N[C@@H](CCC(N)=O)C(=O)N[C@@H](CCCCNC(=O)COCCOCCNC(=O)COCCOCCNC(=O)CC[C@H](NC(=O)CC[C@H](NC(=O)CCCCCCCCCCCCCCCCC(=O)O)C(=O)O)C(=O)O)C(=O)NCC(=O)O)C(C)C [Compound 61] (H-[NMeY][Aib]EGTFISDYSIALDR[Aib]AQ[Aib]DFVNWLLAQK([AEEA-AEEA-γGlu-γGlu-C18 diacid])G-OH)	44% (3 nmol/kg)	> 1000	–
CC[C@H](C)[C@H](NC(=O)[C@H](Cc1ccccc1)NC(=O)[C@@H](NC(=O)CNC(=O)[C@H](CCC(=O)O)NC(=O)C(C)(C)NC(=O)[C@H](Cc1ccc(O)cc1)NC)[C@@H](C)O)C(=O)N[C@@H](CO)C(=O)N[C@@H](CC(=O)O)C(=O)N[C@@H](Cc1ccc(O)cc1)C(=O)N[C@@H](CO)C(=O)N[C@H](C(=O)NC(C)(C)C(=O)N[C@@H](CC(C)C)C(=O)N[C@@H](CC(=O)O)C(=O)N[C@@H](CCCNC(=N)N)C(=O)NC(C)(C)C(=O)N[C@@H](C)C(=O)N[C@@H](CCC(N)=O)C(=O)NC(C)(C)C(=O)N[C@@H](CCCCNC(=O)COCCOCCNC(=O)COCCOCCNC(=O)CC[C@H](NC(=O)CC[C@H](NC(=O)CCCCCCCCCCCCCCCC(=O)O)C(=O)O)C(=O)O)C(=O)N[C@@H](Cc1ccccc1)C(=O)N[C@H](C(=O)N[C@@H](CC(N)=O)C(=O)N[C@@H](Cc1c[nH]c2ccccc12)C(=O)N[C@@H](CC(C)C)C(=O)N[C@@H](CC(C)C)C(=O)N[C@@H](C)C(=O)N[C@@H](CCC(N)=O)C(=O)N[C@@H](CO)C(=O)N1CCC[C@H]1C(=O)N[C@@H](CO)C(=O)N[C@@H](CO)C(=O)NCC(=O)N[C@@H](C)C(=O)N1CCC[C@H]1C(=O)N1CCC[C@H]1C(=O)N1CCC[C@H]1C(=O)N[C@@H](CO)C(N)=O)C(C)C)[C@@H](C)CC [Compound 94] (H-[NMeY][Aib]EGTFISDYSI[Aib]LDR[Aib]AQ[Aib]K([AEEA-AEEA-γGlu-γGlu-C17 diacid])FVNWLLAQSPSSGAPPPS-NH2)	40% (3 nmol/kg)	–	63.1
CC[C@H](C)[C@H](NC(=O)[C@H](CO)NC(=O)[C@H](Cc1ccc(O)cc1)NC(=O)[C@H](CC(=O)O)NC(=O)[C@H](CO)NC(=O)[C@@H](NC(=O)[C@H](Cc1ccccc1)NC(=O)[C@@H](NC(=O)CNC(=O)[C@H](CCC(=O)O)NC(=O)C(C)(C)NC(=O)[C@@H](N)Cc1ccc(O)cc1)[C@@H](C)O)[C@@H](C)CC)C(=O)N[C@@H](C)C(=O)N[C@@H](CC(C)C)C(=O)N[C@@H](CC(=O)O)C(=O)N[C@@H](CCCCN)C(=O)NC(C)(C)C(=O)N[C@@H](C)C(=O)N[C@@H](CCC(N)=O)C(=O)N[C@@H](C)C(=O)N[C@@H](CCCCNC(=O)COCCOCCNC(=O)COCCOCCNC(=O)CC[C@H](NC(=O)CC[C@H](NC(=O)CCCCCCCCCCCCCCCCC(=O)O)C(=O)O)C(=O)O)C(=O)N[C@@H](Cc1ccccc1)C(=O)N[C@H](C(=O)N[C@@H](CCC(=O)O)C(=O)N[C@@H](Cc1c[nH]c2ccccc12)C(=O)N[C@@H](CC(C)C)C(=O)N[C@@H](CC(C)C)C(=O)N[C@@H](C)C(=O)N[C@@H](CCC(N)=O)C(=O)N[C@@H](CCCNC(=N)N)C(=O)NCC(=O)O)C(C)C [Compound 155] (H-Y[Aib]EGTFISDYSIALDK[Aib]AQAK([AEEA-AEEA-γGlu-γGlu-C18 diacid])FVEWLLAQRG-OH)	6% (3 nmol/kg)	85.1	–
CC[C@H](C)[C@H](NC(=O)[C@H](Cc1ccccc1)NC(=O)[C@@H](NC(=O)CNC(=O)[C@H](CCC(=O)O)NC(=O)C(C)(C)NC(=O)[C@H](Cc1ccc(O)cc1)NC)[C@@H](C)O)C(=O)N[C@@H](CO)C(=O)N[C@@H](CC(=O)O)C(=O)N[C@@H](Cc1ccc(O)cc1)C(=O)N[C@@H](CO)C(=O)N[C@H](C(=O)NC(C)(C)C(=O)N[C@@H](CC(C)C)C(=O)N[C@@H](CC(=O)O)C(=O)N[C@@H](CCCNC(=N)N)C(=O)NC(C)(C)C(=O)N[C@@H](C)C(=O)N[C@@H](C)C(=O)NC(C)(C)C(=O)N[C@@H](CCCCNC(=O)COCCOCCNC(=O)COCCOCCNC(=O)CC[C@H](NC(=O)CC[C@H](NC(=O)CCCCCCCCCCCCCCCCC(=O)O)C(=O)O)C(=O)O)C(=O)N[C@@H](Cc1ccccc1)C(=O)N[C@H](C(=O)N[C@@H](CC(N)=O)C(=O)N[C@@H](Cc1c[nH]c2ccccc12)C(=O)N[C@@H](CC(C)C)C(=O)N[C@@H](CC(C)C)C(=O)N[C@@H](C)C(=O)N[C@@H](CCC(N)=O)C(=O)N[C@@H](CO)C(=O)N1CCC[C@H]1C(=O)N[C@@H](CO)C(=O)N[C@@H](CO)C(=O)NCC(=O)N[C@@H](C)C(=O)N1CCC[C@H]1C(=O)N1CCC[C@H]1C(=O)N1CCC[C@H]1C(=O)N[C@@H](CO)C(N)=O)C(C)C)[C@@H](C)CC [Compound 107] (H-[NMeY][Aib]EGTFISDYSI[Aib]LDR[Aib]AA[Aib]K([AEEA-AEEA-γGlu-γGlu-C18 diacid])FVNWLLAQSPSSGAPPPS-NH2)	28% (3 nmol/kg)	–	45.7
I: H-[NMeY][Aib]EGTFISDYSIALDR[Aib]AQ[Aib]KFVNWLLAQSPSSGAPPPS-OH / II: {C18 diacid-γGlu}-PAPAPGG (amide I:21-II:C) [Compound 104]	78% (3 nmol/kg)	–	66.1
CC[C@H](C)[C@H](NC(=O)[C@H](CO)NC(=O)[C@H](Cc1ccc(O)cc1)NC(=O)[C@H](CC(=O)O)NC(=O)[C@H](CO)NC(=O)[C@@H](NC(=O)[C@H](Cc1ccccc1)NC(=O)[C@@H](NC(=O)CNC(=O)[C@H](CCC(=O)O)NC(=O)C(C)(C)NC(=O)[C@H](Cc1ccc(O)cc1)NC)[C@@H](C)O)[C@@H](C)CC)C(=O)N[C@@H](C)C(=O)N[C@@H](CC(C)C)C(=O)N[C@@H](CC(=O)O)C(=O)N[C@@H](CCCNC(=N)N)C(=O)NC(C)(C)C(=O)N[C@@H](C)C(=O)N[C@@H](CCC(N)=O)C(=O)NC(C)(C)C(=O)N[C@@H](CCCCNC(=O)COCCOCCNC(=O)COCCOCCNC(=O)CC[C@H](NC(=O)CC[C@H](NC(=O)CCCCCCCCCCCCCCCCC(=O)O)C(=O)O)C(=O)O)C(=O)N[C@@H](Cc1ccccc1)C(=O)N[C@H](C(=O)N[C@@H](CC(N)=O)C(=O)N[C@@H](Cc1c[nH]c2ccccc12)C(=O)N[C@@H](CC(C)C)C(=O)N[C@@H](CC(C)C)C(=O)N[C@@H](C)C(=O)N[C@@H](CCC(N)=O)C(=O)N[C@@H](CCCNC(=N)N)C(=O)NCC(=O)O)C(C)C [Compound 37] (H-[NMeY][Aib]EGTFISDYSIALDR[Aib]AQ[Aib]K([AEEA-AEEA-γGlu-γGlu-C18 diacid])FVNWLLAQRG-OH)	54% (3 nmol/kg)	44.7	–
CC[C@H](C)[C@H](NC(=O)[C@H](CO)NC(=O)[C@H](Cc1ccc(O)cc1)NC(=O)[C@H](CC(=O)O)NC(=O)[C@H](CO)NC(=O)[C@@H](NC(=O)[C@H](Cc1ccccc1)NC(=O)[C@@H](NC(=O)CNC(=O)[C@H](CCC(=O)O)NC(=O)C(C)(C)NC(=O)[C@H](Cc1ccc(O)cc1)NC)[C@@H](C)O)[C@@H](C)CC)C(=O)N[C@@H](C)C(=O)N[C@@H](CCCCNC(=O)CNC(=O)CNC(=O)CNC(=O)CNC(=O)CC[C@H](NC(=O)CCCCCCCCCCCCCCCCC(=O)O)C(=O)O)C(=O)N[C@@H](CC(=O)O)C(=O)N[C@@H](CCCNC(=N)N)C(=O)NC(C)(C)C(=O)N[C@@H](C)C(=O)N[C@@H](CCC(N)=O)C(=O)NC(C)(C)C(=O)N[C@@H](CC(=O)O)C(=O)N[C@@H](Cc1ccccc1)C(=O)N[C@H](C(=O)N[C@@H](CC(N)=O)C(=O)N[C@@H](Cc1c[nH]c2ccccc12)C(=O)N[C@@H](CC(C)C)C(=O)N[C@@H](CC(C)C)C(=O)N[C@@H](C)C(=O)N[C@@H](CCC(N)=O)C(=O)N[C@@H](CCCCN)C(=O)NCC(=O)O)C(C)C [Compound 80] (H-[NMeY][Aib]EGTFISDYSIAK([Gly-Gly-Gly-Gly-γGlu-C18 diacid])DR[Aib]AQ[Aib]DFVNWLLAQKG-OH)	22% (3 nmol/kg)	115	–
